Results published in PubChem BioAssay AID902 (National Center for Advancing Translational Sciences (NCATS), 2007).
Among all 130,000 compounds or so, about 1,900 (1.5%) were called active. This list was built around the results that the source calls inconclusive (neither active nor inactive); the mix of calls is not that of the screen. Calls come from the whole dose curve; as a rule, active = well fitted cell-killing curve with a large enough effect; inconclusive = small, poorly fitted or top-dose-only effect; inactive = no such curve, though single readings can be large or run the other way. Where the call is inconclusive, the potency comes from a doubtful curve fit.
% is set by controls: 0 for no effect and ±100 for the full control effect; potency is the fitted concentration of half-maximal effect; tags give direction and shape of the fitted curve.

Assay: qHTS Screen for Compounds that Selectively Target Cancer Cells with p53 Mutations: Cytotoxicity of p53ts Cells at the Nonpermissive Temperature; note: nearly all actives have a fitted effect of over 55% in size
Conditions: H1299-p53A138V viability at 39C, ATP luminescence, 24 h; activity change, negative = cell killing: at 46.1 µM (top of the series)
With O=C(CSCc1ccc(F)cc1)N1CCN(c2ccc(Cl)cc2)CC1 the Potency was inconclusive: 12.6 µM [cytotoxic, partial curve].
With Clc1ccc(CN2CCC(CNc3ncnc4onc(-c5ccc(Cl)cc5)c34)CC2)cc1 the Potency was inconclusive: 20 µM [cytotoxic, partial curve, poor fit].
With CCOCC(=O)O the Potency was “inactive”.
For C#CCCCO/N=C1/[C@H]2O[C@@H]2[C@@H](O)[C@H]2[C@H]1CCn1c(=O)n(Cc3cc4c(cc3Cl)OCO4)c(=O)n12, the activity change, negative = cell killing was inactive: 3.74% [at 9.22 µM].
For COc1cccc2c1[C@@H]1CN(CCCCn3c(=O)[nH]c4c(sc5ncc(-c6ccccc6)nc54)c3=O)C[C@H]1CO2, the Potency was inconclusive: 31.6 µM [cytotoxic, single point].
For C=C(C)COc1ccc(-c2n[nH]c(C)c2-c2ccccc2OC)c(O)c1, the Potency was inconclusive: 25.1 µM [cytotoxic, single point].
In the case of CCc1ccc(S(=O)(=O)NCc2cccn2Cc2cccc(C)c2)cc1, the Potency is reported as inconclusive: 10 µM [cytotoxic, partial curve, poor fit].
In the case of O=C(CSc1nc2c([nH]c3ccccc32)c(=O)n1-c1ccc(Cl)cc1)NCc1ccccc1, the Potency is reported as inconclusive: 31.6 µM [cytotoxic, single point].
With CC1(C)C(=O)NC2=C1C(=O)C(=O)c1ccccc12 the Potency was active: 1 µM.
In the case of COc1cccc(C(=O)Nc2nc3c(s2)CCCC3)c1, the Potency is reported as active: 12.6 µM.
In the case of COc1ccc(-n2c(=O)c3ccc(C(=O)NCc4ccc(C)cc4)cc3n(CC(=O)Nc3cccc(F)c3)c2=O)cc1, the Potency is reported as inconclusive: 10 µM [cytotoxic, partial curve].
For CNc1ccc(-c2nc(-c3ccccn3)no2)cc1[N+](=O)[O-], the Potency was “inactive”.
For O=C(COc1ccc(Cl)cc1)NCCc1csc(-c2ccc(C(F)(F)F)cc2)n1, the activity change, negative = cell killing was inconclusive: -33.8% [cytotoxic].
For COc1ccccc1-c1cc(C(F)(F)F)nc(S(=O)(=O)CCCC(=O)Nc2ccccc2F)n1, the Potency was active: 3.16 µM.
With CC1Cc2cc(S(=O)(=O)CCC(=O)Nc3cccc(F)c3)ccc2N1C(=O)C1CC1 (stereo not drawn) the Potency was “inactive”.
For CCCC(=O)Oc1c(Sc2ccc(C)cc2)c(C)nn1-c1ccccc1, the Potency was “inactive”.
For NC1(C(=O)NC2(C(=O)O)CCCC2)CCCC1, the activity change, negative = cell killing was inactive: 6.07% [at 9.22 µM].
In the case of COC(=O)c1ccccc1NC(=O)c1cc2ccccn2n1, the Potency is reported as inconclusive: 6.31 µM [cytotoxic, partial curve].
For Cc1oc2c(cc(NS(=O)(=O)c3ccc(Br)cc3)c3ccccc32)c1C(=O)OCc1ccccc1, the Potency was active: 20 µM.
For COc1ccc(Cn2c(CCC(=O)Nc3ccc(Br)c(C)c3)nc3cccnc32)cc1, the Potency was inconclusive: 12.6 µM [cytotoxic, single point].
For O=C(Nc1cccc(Br)c1)Nc1nc2c(s1)CCCCCC2, the Potency was inconclusive: 31.6 µM [cytotoxic, single point].
With COc1cc2c(C(=O)N3CCN(c4cccc(Cl)c4)CC3)cn(C)c(=O)c2cc1OC the Potency was inconclusive: 1.58 µM [cytotoxic, partial curve].
With CCC(Sc1nc2cc3c(cc2c(=O)n1CCCCCC(=O)NCc1ccc2c(c1)OCO2)OCO3)C(=O)NCCCOC (stereo not drawn) the activity change, negative = cell killing was inconclusive: -35.2% [cytotoxic].
In the case of COc1ccc(-c2nc3ccccc3n2Cc2ccc(C(C)C)cc2)cc1, the Potency is reported as active: 17.8 µM.
In the case of CCOc1ccc(NC(=O)Cn2cc(C(=O)c3ccc(F)cc3)c(=O)c3cc4c(cc32)OCO4)cc1, the Potency is reported as inconclusive: 10 µM [cytotoxic, partial curve].
In the case of COc1cccc(CCNC(=O)c2ccc(Cn3c(SCc4ccccc4)nc4cccnc43)cc2)c1, the Potency is reported as inconclusive: 10 µM [cytotoxic, partial curve].
In the case of Brc1ccc(CNCCCSc2nnnn2-c2ccccc2)cc1, the Potency is reported as inconclusive: 12.6 µM [cytotoxic, partial curve].
With CCOC(=O)Cc1csc(NC(=O)CSc2ncnc3c2cnn3-c2ccc(OC)cc2)n1 the Potency was inconclusive: 15.8 µM [cytotoxic, single point].
In the case of Cc1ccc(C2=Nc3ccccc3N(CC(=O)Nc3ccccc3C)C(=O)C2)cc1C, the Potency is reported as inconclusive: 12.6 µM [cytotoxic, partial curve].
For COc1ccc(OC)c(CNC(=O)c2ccccc2NC(=O)c2nsc3ccccc23)c1, the Potency was inconclusive: 5.01 µM [cytotoxic, full curve].
For COc1ccc(N2CCN(c3nc(NCCc4ccc(OC)c(OC)c4)nc(OC)n3)CC2)cc1, the Potency was “inactive”.
For Cc1ccc2nc(Cl)c3cc(C(=O)NCCCN4CCC(C)CC4)sc3c2c1, the Potency was inconclusive: 12.6 µM [cytotoxic, single point].
For N#C/C(=C\c1ccc(O)c(O)c1)C(=O)c1ccc(O)c(O)c1, the Potency was inconclusive: 31.6 µM [cytotoxic, single point].
With FC(F)(F)c1ccccc1-c1ccc2ncnc(NC3CCNCC3)c2c1 the Potency was inconclusive: 10 µM [cytotoxic, partial curve].
With Cn1c(C(=O)NCc2ccccn2)cc2c(=O)n3ccccc3nc21 the Potency was inconclusive: 5.01 µM [cytotoxic, full curve].
In the case of CC1C(=O)Nc2ccc(S(=O)(=O)Nc3ccccc3Br)cc2NC1=O (stereo not drawn), the Potency is reported as inconclusive: 6.31 µM [cytotoxic, partial curve].
With Cc1c(C(=O)OCC(C)C)[nH]c2c1C(=O)CC(c1ccco1)C2 (stereo not drawn) the Potency was “inactive”.
With CCCCN(C)CC(O)Cn1cc(/C=C/C(=O)c2ccc(OC)c(OC)c2)c2ccccc21 (stereo not drawn) the Potency was active: 15.8 µM.
With CCc1cc2c(cc3c(=O)n(CC(=O)N4CCCCC4)nc(CC)n32)s1 the Potency was “inactive”.
For Cc1cc(NC(=O)CSc2nc(-c3ccco3)cc(C(F)(F)F)n2)no1, the Potency was inconclusive: 35.5 µM [cytotoxic, single point].
For Clc1ccc2nc(N3CCCCC3)[nH]c2c1, the Potency was inconclusive: 15.8 µM [cytotoxic, single point].
With Nc1c(-c2nc(-c3ccccc3)cs2)c2ccccn2c1C(=O)c1ccc2c(c1)OCO2 the Potency was inconclusive: 7.08 µM [cytotoxic, partial curve].
In the case of O=C(NCCCN1CCN(c2ccccc2)CC1)c1nnc(Cc2ccc(F)cc2)o1, the Potency is reported as inconclusive: 20 µM [cytotoxic, partial curve].
For O=c1c2[nH]c3ccc(Br)cc3c2ncn1CCCn1ccnc1, the Potency was “inactive”.
In the case of Cn1nnnc1SCCNCc1ccccc1OCc1ccc(Cl)cc1Cl, the Potency is reported as inconclusive: 15.8 µM [cytotoxic, single point].
For CC1=C(SCCC#N)S/C(=C2\SC(C)=C(SCCC#N)S2)S1, the Potency was “inactive”.
For COc1cc2c(cc1OC)C(COc1ccc(F)cc1)N(C(=O)c1ccccc1F)CC2 (stereo not drawn), the Potency was inconclusive: 20 µM [cytotoxic, partial curve].
For Cc1ccccc1-c1nc(CS(=O)(=O)CC(=O)Nc2cccc(C(F)(F)F)c2)c(C)o1, the Potency was inconclusive: 25.1 µM [cytotoxic, single point].
In the case of O=S(=O)(Nc1cccc(-c2ccc(N3CCCCCC3)nn2)c1)c1ccccc1, the Potency is reported as inconclusive: 10 µM [cytotoxic, partial curve].
For CCC(=O)N/C(N)=N/c1nc(C)c2cc(OC)ccc2n1, the Potency was inconclusive: 10 µM [cytotoxic, partial curve].
For CC(C)NC(=O)N1CCC(N2CCN(Cc3ccc(F)cc3)C(=O)C2=O)CC1, the Potency was inconclusive: 0.316 µM [cytotoxic, full curve, poor fit].
For CC(C)c1cc(C(=O)Nc2cccnc2)no1, the Potency was inconclusive: 10 µM [cytotoxic, partial curve, poor fit].
With COc1ccc(CCNC(=O)C2CCN(c3nc4ccccc4nc3C(F)(F)F)CC2)cc1OC the Potency was inconclusive: 1 µM [cytotoxic, full curve, poor fit].
With COc1ccc(C(=O)Oc2c(Sc3ccccc3)c(C)nn2-c2ccccc2)cc1OC the Potency was inconclusive: 31.6 µM [cytotoxic, single point].
For Cn1c(SCc2cccc(F)c2)nc2c([nH]c3ccccc32)c1=O, the Potency was “inactive”.
With O=C(NCC(c1cccnc1)N1CCOCC1)C(=O)Nc1ccc(F)cc1 (stereo not drawn) the Potency was “inactive”.
In the case of CCn1c(SCC(=O)Nc2nc3c(s2)CCCC3)nnc1-c1ccccc1, the Potency is reported as “inactive”.
With CC(C)(O)c1cc(=O)sc2nc3ccccc3n12 the Potency was inconclusive: 10 µM [cytotoxic, partial curve].
For CC1CCN(c2nc3ccc(C(=O)O)cc3s2)CC1, the Potency was inconclusive: 15.8 µM [cytotoxic, partial curve].
For Cc1cc(C)cc(C(=O)Nc2c(C(=O)Nc3ccccc3F)oc3ccccc23)c1, the Potency was inconclusive: 31.6 µM [cytotoxic, single point].
In the case of COC(=O)c1cn(NC(=O)c2cnccn2)c(=O)c2ccccc12, the Potency is reported as inconclusive: 12.6 µM [cytotoxic, single point].
In the case of O=C(/C=C/c1ccc(OCc2ccccc2)cc1)c1cccs1, the Potency is reported as “inactive”.
With CCOc1ccc(/C=C/c2nc(C#N)c(NC3CCCCC3)o2)cc1 the Potency was “inactive”.
With COc1ccc(CNC(=O)Nc2ccc(OC)cc2)cc1 the Potency was “inactive”.
In the case of O=C(Nc1ccc2nc(-c3cccs3)[nH]c2c1)c1ccco1, the Potency is reported as active: 12.6 µM.
For CCCn1c(=N)n(CC(O)COc2cccc(C)c2)c2ccccc21 (stereo not drawn), the Potency was “inactive”.
For Cc1ccccc1NC(=O)Cn1c(=O)n(CCCCCC(=O)NCc2ccccc2Cl)c(=O)c2sccc21, the Potency was “inactive”.
In the case of C/C(CCC(=O)OC[C@@H]1O[C@H](C#Cc2ccccc2)C=C[C@@H]1Oc1ccc(C)cc1)=N/OC[C@@H](O)[C@H]1O[C@H]2OC(C)(C)O[C@H]2[C@@H]1O, the activity change, negative = cell killing is reported as inactive: -6.96% [at 9.22 µM].
